From the supplement of paper PMC11417369
± gives the standard deviation of the averaged measurements. The list shows a part of the results.

Each sequence was assayed on PfAP2-G AP2 domain (GST-tagged) (assay: gcPBM binding intensity (ln(normalized median fluorescence intensity)); higher = stronger DNA binding).
Outline: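 An Agilent 4 × 180k array carrying primer-extended double-stranded 36-bp intergenic genomic probes and negative controls received GST-tagged P. falciparum DNA-binding domains expressed in E. coli, about 25 μg on average, for 1 h. The binding buffer contained 1× PBS, 1% milk, 0.2 mg/ml BSA, 0.5% salmon testes DNA and 0.03% Triton X-100. Binding intensity is the top Masliner-normalised natural-log median intensity across replicate spots of either probe orientation, read after Alexa488 anti-GST antibody staining and a 488 nm scan.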

Sequence | gcPBM binding intensity (ln)
ATATGTTTATTAAATGCATGTCAAGACTTAAGATAT [TGCATGCA_site329] | 9.905 ± 0.035
TCATCCACATATTGTAGTACAAGATAATTGTTTATT [XGTACX_site1634] | 11.3 ± 0.86
CAAAATATAAAAACATGTACATAAATATTAACGAAT [XGTACX_site2380] | 11.3 ± 0.83
TATACACATATATAAAGTACATATATGTGTAAAAAA [XGTACX_site8582] | 11 ± 0.64
ATATGCATAAAAAGAGGTACACATAAAATATATATA [XGTACX_site5864] | 11.5 ± 0.91
TTTTTTGGGTAAAATTATAAAATATGTATATATAAA [CACACA_negctrl_site27] | 9.84 ± 0.11
TTTTTTTTTGTATTTTCACACATTTTTTTTTTTTTT [CACACA_site5407] | 9.94 ± 0.16
TTATTTAAACAAATCACACACAAATATATATACATA [CACACA_site2019] | 10.07 ± 0.078
CAAAAAATGAAACACACACACACACCCATAAATAAA [CACACA_site1231] | 10.3 ± 0.2
TCATATATAAAAAGGGTGCTTTTAAAAGAATGGATT | 10.02 ± 0.028
CAGATATTTGTTCATATACACACTTTTGATAAAATA [CACACA_site1219] | 10.04 ± 0.014
AATATTTTTTGTTTTACACACATATATAGATATATA [CACACA_site7662] | 9.915 ± 0.021
TATAATCATATATACACACACATATATATATATATA [CACACA_site2168] | 10.2 ± 0.61
CATATTTTCAAAATTAGTACATAAAAAAAAAAATAT [XGTACX_site3101] | 11.4 ± 0.76
GACCTACAAAAAGGCACACATATACGCATACATACA [CACACA_site2179] | 10.5 ± 0.26
TCTTCCGCTTTATGGAGTACTATGGTAGCCTTTCCT [XGTACX_site2958] | 11.2 ± 0.76
AATGGAAATGTAAAATGTACAGGACGCACACACATA [XGTACX_site7788] | 11.1 ± 0.54
AAAAAAAATTAAAATAAATTAAAAAGTAATTATATA [GTGCAC_negctrl_site615] | 9.31 ± 0.33
AATGAGAAGGACTGCACACTAAAATGGAAGGAGAAA [CACACA_site1575] | 10.6 ± 0.59
ATGTTGTGTATATATACACACATACATATATATATA [CACACA_site8461] | 10.4 ± 0.43
GAAATATTTAGACACACACACAAACATATAAATATA [CACACA_site6980] | 10.07 ± 0.049
GATTATATTATATATTAAATATAAATATGTATTATA [TGCATGCA_negctrl_site66] | 9.8 ± 0.085

Sequence | gcPBM binding intensity (ln)
GAAAAAATTTTATGGTGTACTTTATTTATTTATATA [XGTACX_site6323] | 11.5 ± 1
GGAAAGACAGTTCACAGTACCCAGTAAACTCTACGG [XGTACX_site2557] | 10.6 ± 0.47
AAAATATAGTAATATATATATGTATATTATTTGTGG [CACACA_negctrl_site1590] | 9.6 ± 0.22
TTATTACATGTTACTTAACACACATCTGGTGAAATA [CACACA_site7939] | 9.98 ± 0.014
AAAATAAATAAATAAATAAATATATATATATATATA [XGTACX_negctrl_site345] | 9.72 ± 0.23
TATAGGTATATATTATGTACTTATAATTATATAGAT [XGTACX_site1912] | 11.3 ± 0.74
ATATATAATATTTTTATTTTTATTTTTTTTTTATGA [TGCATGCA_negctrl_site577] | 9.28 ± 0.21
ATTAAGTTCAAATGTAGTACGTGTAAAAAAAAAAAA [XGTACX_site1578] | 11.4 ± 0.83
TACCATGTTCAAATTACACACATATAATGTAATATA [CACACA_site5150] | 10.1 ± 0.18
TTTATATATGTAAATGCACACATATGTGTATATACT [CACACA_site8493] | 10.3 ± 0.3
TTTTTTTTTTTTTTTATAAAAGATAATTTTTTTTTA [CACACA_negctrl_site133] | 9.38 ± 0.2
CATTTATATTATAAATGTACAAAGTTCGTTTGTTCC [XGTACX_site1305] | 10.7 ± 0.3
TTGTATATATATGGAAAAATATATATATATATATAT [GTGCAC_negctrl_site591] | 10.3 ± 0.83
TTTATTTATAGACACACACACAAAAAAAAAAAAAAA [CACACA_site7280] | 10 ± 0.62
ATACGATTGAAACATTGTACATGAATATAAAAAAAT [XGTACX_site5704] | 10.8 ± 0.51
TGTCTTTAAATTTCTCAACACACAGTTATAAAAAAT [CACACA_site8930] | 9.94 ± 0.099
GGGTCAAGTAAGCTGTTCCTCTTTTTCTTTCTCACT [GTGCAC_negctrl_site473] | 10.16 ± 0.057
TATAAATTTAAAATGACACACACTAATATTATTTAA [CACACA_site8334] | 10.1 ± 0.11
TTCTAAAAAAATAAAATTATCAAGGTTTTTAAACGT [CACACA_negctrl_site308] | 9.71 ± 0.071
TAAACGTTAGTATGTGTGCACATTAGTAATTTAAAA | 10.5 ± 0.3
TTTTTATTATTCTTAAGGATATAACAAAAAAGAAAA [XGTACX_negctrl_site584] | 9.87 ± 0.21
ATTAATATTATTAGAAGTACTAATAGTAGTATAACT [XGTACX_site1325] | 11.2 ± 0.74

Sequence | gcPBM binding intensity (ln)
TAAATAAATATATATTCACACACAAACATATATATA [CACACA_site9332] | 9.94 ± 0.23
TCTTCATAAAAATAAAGTACATTATATATATAAATA [XGTACX_site3775] | 11.3 ± 0.98
TCAAAGCACACATACACACACATATAGATTTATATA [CACACA_site6272] | 10 ± 0.12
AAAATATAAATCTAAGCATGCAAAAAAAATTTATAA [TGCATGCA_site1008] | 9.705 ± 0.064
TATTGTTTTAAAGAGACATGCAATATATATTATTCC [TGCATGCA_site752] | 9.775 ± 0.078
GCATCCCTTTTTATGTGTACATACAAAGGCAATTAC [XGTACX_site6977] | 11.3 ± 0.8
TTATTTAAAAAAAAGTGTACCCATATATTATAAATC [XGTACX_site8374] | 11.5 ± 0.91
TTTTTATTCGATGATCAAATAGGTATATACAAAAAA [CACACA_negctrl_site1813] | 10.2 ± 0.31
AATAATAATAGTAATATGTACATATATATATATATA [TGCATGCA_negctrl_site542] | 11.2 ± 0.67
TATAAGCAAAAACACACACACATATATATATATATA [CACACA_site3804] | 10.1 ± 0.7
AAATGAAATTTGTATACACACAAATATATATATATA [CACACA_site836] | 10.1 ± 0.32
TAATATTATAGATAAACACACATACACATGTAAATA [CACACA_site7049] | 10.1 ± 0.071
ATTATTAAGTTTCACAAGAACATTGTTAACAATTTT [CACACA_negctrl_site1128] | 9.935 ± 0.007
TATTAAGTATTTTACGTACACACTTATAAATGTACA [CACACA_site3885] | 11.7 ± 0.82
TGCATGCATTATCATAGTACATATAATGTTGTATAA [XGTACX_site2775] | 10.7 ± 0.45
TAATCTTTCGTACATGTACACACAGAAAAAAAAAAA [CACACA_site8798] | 11.8 ± 1.3
CTGAACCCGTTATGGTGTACATAAAATAAGACACAG [XGTACX_site3484] | 11.6 ± 0.96
ATTACATGCAATATATGTACGTAATATATATATATA [XGTACX_site2300] | 11.4 ± 0.86
AATTTATATTTTCGTAGTACGTATTTTATTCTTTTG [XGTACX_site4162] | 11.4 ± 0.8
TATAAGGTGTCCTATACACACTCCAATAGATATATA [CACACA_site7066] | 10.5 ± 0.42
ACAGAATATTTAATTCAACACACATACATATTTATT [CACACA_site8734] | 9.96 ± 0.11
ATTTATATCCTTAAACGTACATTGTATTGTATTTTA [XGTACX_site6080] | 11.1 ± 0.58

Sequence | gcPBM binding intensity (ln)
AAAAAAAAAAAGTACACACATACATATAAATATATA [CACACA_site1809] | 11.6 ± 0.95
AAAGACGCAAAATTGGTGCGCTGCTTTTAGCATTTT | 9.9 ± 0.12
AATAATCATGATCAAAGTACTTATGAATACCAAAAA [XGTACX_site2572] | 11 ± 0.61
ATTAAAAAATTATTCACACAAAATAAAAAAATGAAA [CACACA_site4918] | 10 ± 0.11
TACACATAATATAATGCATGTGTGATGTATGTTTAA [TGCATGCA_site697] | 9.935 ± 0.078
ATATTTAGGATTATCTGTACATAATATGTTTAATTA [XGTACX_site3426] | 10.9 ± 0.71
TGATAACCTAATAATACACACACATGAATATATATA [CACACA_site8226] | 9.97 ± 0.18
GTCGCCAAAAGGTGTACACATAATGCATTATCATAA [CACACA_site6112] | 11.7 ± 0.88
TAAAAAAAATAGCATACACACATATATACATATATA [CACACA_site658] | 9.73 ± 0.16
TTGTATTCCTTTTACAACTACCATGAAGAGAATTTT [CACACA_negctrl_site1286] | 10.1 ± 0.2
AAAATTATTTTTATGTGTACTTATTTATTATTTATA [XGTACX_site6665] | 11.4 ± 0.86
TTTTATTTTTTCCGACGTACATCCATTATATATAAT [XGTACX_site4469] | 11.5 ± 0.91
AAATGTTAAAATGACAGTACATATATAAAAAAAAAA [XGTACX_site3936] | 10.7 ± 0.35
AAAAAAAACGCACATACACACACACCCATATATATA [CACACA_site9118] | 10.3 ± 0.18
AAAAAAAAAAAAAAGGTGCAAATAAATTAACCTTAT | 10.2 ± 0.22
AAATATTTGGAGAAATGTACATATTATAAATATATT [XGTACX_site6885] | 11 ± 0.57
CTAGGAAATTATATGGGTACTCATATTCATAAAAAA [XGTACX_site1846] | 11.3 ± 0.8
GATGATGTTTATTTGTGTACATATTAATACTTAATA [XGTACX_site1902] | 11.4 ± 0.82
TACTTATGTGCATACCTACACACTTACATATATATA [CACACA_site2975] | 10.2 ± 0.19
TATAAATAAATACATACACACACATACATATATATA [CACACA_site9024] | 10.02 ± 0.085
AATCATATGAAAAATACATGCGCATGGATACCTTTA [TGCATGCA_site224] | 10.1 ± 0.13
AAGAACAGAACGTACACACACATATATATATATATA [CACACA_site3457] | 11.5 ± 0.99
